Laboratory results reported in the supplement of paper PMC10126150.
Values marked as one replicate rest on one cluster of the flow cell; about a third of the high ones do not repeat.

test system: ATP; test: switch fluorescence ratio, 500 uM ATP over buffer (Cy3 cluster intensity, sum of 5 cycles each) (fold (ratio)); higher = stronger signal-on switching upon ATP binding; sequences stand for … in TCGTCGGCAGCGTCAGATGTGTATAAGAGACAGTTTTTTTTTTTTTTTTTTTTTTTTT…TC; settings: aptamer strand: ATP DNA aptamer (quencher-CACCTGGGGGAGTATTGCGGAGGAAGG + anchor), 100 nM annealed; ATP concentration: 500 uM; one replicate
How it was run: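 The fluorescence ratio divides summed target-cycle Cy3 intensity by summed buffer-cycle Cy3 intensity for each cluster and is averaged per switch-domain sequence. Cy3-labelled switching-strand clusters on a modified Illumina MiSeq flow-cell were annealed to 100 nM quencher-labelled ATP aptamer, then imaged in selection buffer and again after 15 min with 500 uM ATP at 22 °C. Five such cycles were run, with NaOH stripping and re-annealing between them, and clusters outside 100-1000 RFU were excluded.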
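Further: ATP exposure 15 min at 22 °C before imaging.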

| Sequence | switch fluorescence ratio |
| --- | --- |
| TCATAGTATC | 0.976 |
| TCATATCATG | 0.973 |
| TCATATGTGA | 0.966 |
| TCATATTCAA | 1.01 |
| TCATATTGGG | 1.01 |
| TCATCAATGA | 1.02 |
| TCATCACAGT | 0.998 |
| TCATCATGGG | 1 |
| TCATCCTTTT | 0.989 |
| TCATCGATGT | 0.972 |
| TCATCGCAGC | 2.81 |
| TCATCGCCTT | 1.1 |
| TCATCGGTAT | 1 |
| TCATCGTGTC | 0.968 |
| TCATCTCCCA | 1.23 |
| TCATGAATGT | 1.02 |
| TCATGATCTT | 0.984 |
| TCATGATTGT | 0.99 |
| TCATGCTATA | 0.977 |
| TCATGGAG | 0.977 |
| TCATGGGAGC | 1.03 |
| TCATGTGGGA | 0.992 |
| TCATGTTCCG | 0.975 |
| TCATTAAAGA | 0.959 |
| TCATTAAAGT | 1.16 |
| TCATTCCGAG | 1.74 |

| Sequence | switch fluorescence ratio |
| --- | --- |
| TCATTCGAGC | 0.994 |
| TCATTCTTG | 0.965 |
| TCATTGAACG | 1.02 |
| TCATTGAAGG | 0.962 |
| TCATTGCGGG | 1 |
| TCATTGCGTT | 0.955 |
| TCATTGTCGT | 0.997 |
| TCATTGTGGA | 1.06 |
| TCATTGTGTA | 0.959 |
| TCATTTCGTG | 0.97 |
| TCCAAAACTA | 1.06 |
| TCCAAAATGA | 1.07 |
| TCCAAATAGG | 0.974 |
| TCCAACCGGG | 1.07 |
| TCCAAGACTA | 1.04 |
| TCCAAGTTGC | 1.1 |
| TCCAATGGGA | 1.01 |
| TCCACAATTC | 2.61 |
| TCCACCATGG | 1.2 |
| TCCACGTTTT | 0.96 |
| TCCAGATCCC | 1.05 |
| TCCAGCCGAT | 1.03 |
| TCCAGCCGCA | 1.15 |
| TCCAGTTATG | 0.996 |
| TCCAGTTGGA | 1.02 |
| TCCATACCTG | 1 |

| Sequence | switch fluorescence ratio |
| --- | --- |
| TCCATACTGT | 1.05 |
| TCCATCGTTT | 1.1 |
| TCCATGAGA | 1 |
| TCCATGGCAG | 1.11 |
| TCCATGGTTC | 0.988 |
| TCCATTTGTA | 0.969 |
| TCCCAAGCGG | 1.05 |
| TCCCACGACT | 1.09 |
| TCCCCGTAT | 0.999 |
| TCCCGTCCCT | 0.996 |
| TCCCTAAAGG | 1.14 |
| TCCCTAGGCG | 1.26 |
| TCCGAACATC | 1.79 |
| TCCGAATATA | 1.17 |
| TCCGACCGGT | 1.01 |
| TCCGAGAATA | 1.66 |
| TCCGATGCCA | 3.05 |
| TCCGCAAGGG | 2.44 |
| TCCGCATTTT | 4.56 |
| TCCGCTCGG | 1.16 |
| TCCGGCGCTG | 1.52 |
| TCCGGGAGTC | 1.25 |
| TCCGGGCGGG | 1.01 |
| TCCGGGGCTT | 1.16 |
| TCCGGTGATA | 0.988 |
| TCCGGTGGT | 0.992 |

| Sequence | switch fluorescence ratio |
| --- | --- |
| TCCGGTGTTA | 1.11 |
| TCCGTAAACC | 2.92 |
| TCCGTACCTT | 1.15 |
| TCCGTAGGTT | 1.04 |
| TCCGTCATGT | 1.16 |
| TCCGTCGCCT | 0.945 |
| TCCTAACTGG | 0.967 |
| TCCTAAGAGG | 1.03 |
| TCCTAGGCTT | 1.01 |
| TCCTAGGGA | 0.993 |
| TCCTAGGTAT | 0.986 |
| TCCTAGTTTT | 1.01 |
| TCCTATACAT | 1.02 |
| TCCTATGCCT | 1.02 |
| TCCTCGAG | 1 |
| TCCTCTCACA | 2.2 |
| TCCTCTTACA | 1.18 |
| TCCTGACGGG | 1.01 |
| TCCTGCTGGG | 0.979 |
| TCCTGGAAGG | 1 |
| TCCTGGACCA | 0.984 |
| TCCTGGCGCT | 1.25 |
| TCCTGGGGCT | 1.06 |
| TCCTGTTGTA | 0.976 |
| TCCTTATTTA | 1.64 |
| TCCTTCGTGC | 1.02 |

| Sequence | switch fluorescence ratio |
| --- | --- |
| TCCTTGATCA | 1.03 |
| TCCTTGCTGG | 1.23 |
| TCCTTTGGGA | 1.02 |
| TCGAAAGATT | 0.988 |
| TCGAAATCCA | 1.03 |
| TCGAACTCT | 0.976 |
| TCGAATACTA | 1.08 |
| TCGACAAACC | 1.17 |
| TCGACAGATG | 1.06 |
| TCGACATTAC | 3.86 |
| TCGACCGTAT | 0.968 |
| TCGAGAAG | 0.987 |
| TCGAGCCGCC | 1.05 |
| TCGAGCCTTG | 0.942 |
| TCGAGGCTTC | 1.07 |
| TCGAGGTGGA | 0.945 |
| TCGAGTTAGT | 1.01 |
| TCGATACTGC | 1.09 |
| TCGATATCCG | 0.929 |
| TCGATATCG | 0.985 |
| TCGATCTCTG | 0.957 |
| TCGATCTTA | 1.03 |
| TCGATGAAGG | 0.964 |
| TCGATGCCTG | 1.07 |
| TCGATGTGG | 1.04 |
| TCGATTATTA | 1.02 |

| Sequence | switch fluorescence ratio |
| --- | --- |
| TCGCAAAAAG | 1.07 |
| TCGCAAAGCA | 1.06 |
| TCGCAACTGT | 1.41 |
| TCGCACACGT | 1.22 |
| TCGCACGGGT | 1.08 |
| TCGCACTGGG | 1.12 |
| TCGCAGCACT | 3.73 |
| TCGCATCGT | 1.04 |
| TCGCATCTAA | 1.13 |
| TCGCCGAGCG | 1.01 |
| TCGCGAGGCT | 1.31 |
| TCGCGCTTAA | 1.12 |
| TCGCGGGGAA | 0.997 |
| TCGCGGTGCA | 1.06 |
| TCGCTAAAAG | 1 |
| TCGCTATGTG | 0.99 |
| TCGCTCAAAA | 0.993 |
| TCGCTCGTTA | 1.01 |
| TCGCTTGTCG | 1.02 |
| TCGGAAAAGA | 1.04 |
| TCGGAAGGTA | 1.02 |
| TCGGATCAAT | 1.1 |
| TCGGATGTT | 1 |
| TCGGATTGG | 0.999 |
| TCGGCAACGT | 1.01 |
| TCGGCACATA | 1.21 |

| Sequence | switch fluorescence ratio |
| --- | --- |
| TCGGCACCA | 1.01 |
| TCGGCCACGA | 0.99 |
| TCGGCGACGT | 0.98 |
| TCGGCGATAC | 3.33 |
| TCGGCGCCTG | 0.987 |
| TCGGCTGGGA | 0.981 |
| TCGGCTGTGA | 0.975 |
| TCGGGAAAGT | 0.968 |
| TCGGGAAGAA | 1.01 |
| TCGGGATACC | 1.03 |
| TCGGGCACGA | 0.975 |
| TCGGGCCCT | 0.994 |
| TCGGGCCCTC | 1.02 |
| TCGGGGCGTT | 1 |
| TCGGGTATGC | 0.985 |
| TCGGGTTAT | 1.01 |
| TCGGGTTTGA | 1 |
| TCGGTAAATC | 1.05 |
| TCGGTACGCC | 0.978 |
| TCGGTACTGT | 1.04 |
| TCGGTAGTAT | 0.979 |
| TCGGTATGGT | 1.01 |
| TCGGTCACTG | 1.02 |
| TCGGTGGAAA | 1.06 |
| TCGGTGTCCA | 0.937 |
| TCGGTTAGAA | 0.992 |

| Sequence | switch fluorescence ratio |
| --- | --- |
| TCGGTTTCT | 0.985 |
| TCGGTTTTGA | 0.991 |
| TCGTAAGCAG | 1.02 |
| TCGTAAGGAT | 1.02 |
| TCGTACGGTT | 0.974 |
| TCGTAGAGTC | 0.981 |
| TCGTAGCCAC | 1.12 |
| TCGTAGGAGA | 0.991 |
| TCGTAGGCAA | 1.49 |
| TCGTAGTCGC | 0.986 |
| TCGTATGTAC | 1.09 |
| TCGTATTAC | 1.36 |
| TCGTATTCAG | 0.979 |
| TCGTATTCTT | 0.997 |
| TCGTATTTA | 0.979 |
| TCGTCCAATG | 1.07 |
| TCGTCGTACT | 1.04 |
| TCGTCGTG | 0.998 |
| TCGTCGTTAC | 1.62 |
